Source: a collection of fitness landscapes (doi:10.1038/s41467-024-54723-y)
In all, about 18,000 sequences were measured (“TetR repression strength (sort-seq, GFP reporter)”: median about 0.23, highest 2% from about 0.68 on). The list shows a part of the results.

Each sequence was assayed against TetR (class B, Tn10) (UniProt P04483) (assay: TetR repression strength (sort-seq, GFP reporter) (relative to tetO2 = 1); higher = stronger repression). Conditions: E. coli.
Method in brief: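 E. coli SIG10-MAX carried a low-copy plasmid library with eight randomized operator positions between a constitutive promoter and sfGFP, with TetR constitutively expressed. Cells grew 5 h at 37 °C in LB with 50 µg/mL chloramphenicol, then 10^6 cells were FACS-sorted into 13 fluorescence bins, each Illumina-sequenced. Repression strength is the top bin index plus one minus the read-weighted mean bin, divided by the wild-type operator value. Three independent transformations; variants with ≥30 reads in all replicates and CV ≤0.5 were averaged.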

Sequence of UniProt P04483 (P04483 whole entry): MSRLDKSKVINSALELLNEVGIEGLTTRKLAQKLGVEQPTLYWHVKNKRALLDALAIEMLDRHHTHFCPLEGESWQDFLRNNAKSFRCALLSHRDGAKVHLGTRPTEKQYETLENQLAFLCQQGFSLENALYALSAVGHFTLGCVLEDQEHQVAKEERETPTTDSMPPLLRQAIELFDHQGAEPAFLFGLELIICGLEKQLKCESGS

Row | Sequence | TetR repression strength
1 | TCCCTTTGAGTAAAGGAGA | 0.0355
2 | TCCCGCTTAGTGAAAGAGA | 0.023
3 | TCCCACGGAGTGTACGAGA | 0.3
4 | TCCCGGAAAGTACTGGAGA | 0.131
5 | TCCCAAGTAGTTGGTGAGA | 0.774
6 | TCCCGAGTAGTCACGGAGA | 0.486
7 | TCCCACGCAGTGCAGGAGA | 0.529
8 | TCCCGTTTAGTGATCGAGA | 0.244
9 | TCCCGTACAGTCTTAGAGA | 0.146
10 | TCCCGTATAGTAGTGGAGA | 0.0786
11 | TCCCTAAGAGTTGTGGAGA | 0.155
12 | TCCCTGAGAGTATTGGAGA | 0.147
13 | TCCCGTTTAGTCCGCGAGA | 0.114
14 | TCCCACTTAGTGTGAGAGA | 0.178
15 | TCCCTCGTAGTTGAGGAGA | 0.161
16 | TCCCCAGTAGTGCGTGAGA | 0.144
17 | TCCCCGAGAGTAGAGGAGA | 0.132
18 | TCCCCTATAGTATGAGAGA | 0.348
19 | TCCCCCTGAGTAGCGGAGA | 0.102
20 | TCCCCTGAAGTACATGAGA | 0.151
21 | TCCCGCAAAGTGCGGGAGA | 0.193
22 | TCCCGGACAGTTGGCGAGA | 0.277
23 | TCCCTGGCAGTGTTCGAGA | 0.419
24 | TCCCTCGAAGTGCGGGAGA | 0.25
25 | TCCCTGCAAGTTTGTGAGA | 0.586
26 | TCCCTGTCAGTTCATGAGA | 0.326

Row | Sequence | TetR repression strength
27 | TCCCAGGCAGTATGGGAGA | 0.148
28 | TCCCAATAAGTACATGAGA | 0.0585
29 | TCCCGACCAGTTTTCGAGA | 0.185
30 | TCCCGGCTAGTGGGCGAGA | 0.0419
31 | TCCCTGGCAGTTATTGAGA | 0.387
32 | TCCCCGTTAGTACAAGAGA | 0.34
33 | TCCCCACCAGTCCGGGAGA | 0.207
34 | TCCCGTGAAGTACAAGAGA | 0.268
35 | TCCCCCATAGTTCGGGAGA | 0.238
36 | TCCCAGCGAGTTACAGAGA | 0.238
37 | TCCCGAAGAGTCGGAGAGA | 0.227
38 | TCCCGCGAAGTCAGAGAGA | 0.382
39 | TCCCGTACAGTTACTGAGA | 0.394
40 | TCCCATTAAGTTCCAGAGA | 0.313
41 | TCCCCTTAAGTGGCCGAGA | 0.19
42 | TCCCTATTAGTGTGAGAGA | 0.251
43 | TCCCGCTCAGTCATCGAGA | 0.121
44 | TCCCAGTAAGTCATCGAGA | 0.307
45 | TCCCGGCTAGTTAGCGAGA | 0.485
46 | TCCCGATAAGTTTACGAGA | 0.495
47 | TCCCACAGAGTTAAAGAGA | 0.207
48 | TCCCCATTAGTACGTGAGA | 0.214
49 | TCCCTGGCAGTAATCGAGA | 0.221
50 | TCCCCGAGAGTGTGGGAGA | 0.152
51 | TCCCTATCAGTAGTTGAGA | 0.558
52 | TCCCGGCAAGTGGTAGAGA | 0.192

Row | Sequence | TetR repression strength
53 | TCCCCACGAGTGTGGGAGA | 0.115
54 | TCCCTTCGAGTTTAAGAGA | 0.0638
55 | TCCCGGTTAGTCAAGGAGA | 0.318
56 | TCCCTGATAGTGAGTGAGA | 0.217
57 | TCCCTTCAAGTTGGAGAGA | 0.114
58 | TCCCGGCCAGTTGGCGAGA | 0.0551
59 | TCCCGTCTAGTTTGGGAGA | 0.0524
60 | TCCCGGGTAGTGACTGAGA | 0.252
61 | TCCCGATGAGTTCAAGAGA | 0.433
62 | TCCCCTCCAGTGAAGGAGA | 0.572
63 | TCCCAATTAGTTTAAGAGA | 0.236
64 | TCCCGAATAGTTTGTGAGA | 0.535
65 | TCCCGCAAAGTGGATGAGA | 0.227
66 | TCCCGGGGAGTGATTGAGA | 0.343
67 | TCCCTCCGAGTGGGGGAGA | 0.0155
68 | TCCCATCAAGTATTTGAGA | 0.635
69 | TCCCGGAGAGTTGGGGAGA | 0.207
70 | TCCCAACTAGTATGTGAGA | 0.329
71 | TCCCCTCTAGTGACGGAGA | 0.136
72 | TCCCAGAAAGTGTCTGAGA | 0.239
73 | TCCCGACGAGTTCTGGAGA | 0.239
74 | TCCCAGGAAGTTCCAGAGA | 0.276
75 | TCCCTGGAAGTGGAAGAGA | 0.188
76 | TCCCATCAAGTGGCAGAGA | 0.618
77 | TCCCCATCAGTGGAGGAGA | 0.0881
78 | TCCCAGGAAGTAGACGAGA | 0.186

Row | Sequence | TetR repression strength
79 | TCCCGGGTAGTGTTTGAGA | 0.498
80 | TCCCATCAAGTGCTTGAGA | 0.355
81 | TCCCTGTGAGTGGAGGAGA | 0.209
82 | TCCCCAACAGTGATTGAGA | 0.344
83 | TCCCCGCGAGTGATGGAGA | 0.0206
84 | TCCCAGTCAGTTGTGGAGA | 0.296
85 | TCCCGGACAGTCGCTGAGA | 0.222
86 | TCCCCAGGAGTCGGAGAGA | 0.179
87 | TCCCAGGGAGTGCCCGAGA | 0.235
88 | TCCCCGCCAGTATTGGAGA | 0.218
89 | TCCCAGCTAGTCATTGAGA | 0.131
90 | TCCCGCTGAGTTGCTGAGA | 0.139
91 | TCCCGAAAAGTCCTCGAGA | 0.162
92 | TCCCCAGTAGTGTGGGAGA | 0.295
93 | TCCCAAACAGTGGAGGAGA | 0.431
94 | TCCCCTTCAGTCGGTGAGA | 0.315
95 | TCCCCGTTAGTATGTGAGA | 0.296
96 | TCCCGCAGAGTGTGCGAGA | 0.361
97 | TCCCCAGCAGTGGTGGAGA | 0.175
98 | TCCCGTCGAGTTTACGAGA | 0.338
99 | TCCCGTCGAGTTAGTGAGA | 0.366
100 | TCCCAGGTAGTGAAAGAGA | 0.147
101 | TCCCGGAAAGTCGTTGAGA | 0.296
102 | TCCCAAAAAGTGTTTGAGA | 0.108
